Experimental data published in PubChem BioAssay AID504332 (National Center for Advancing Translational Sciences (NCATS), 2011).
In all, about 350,000 compounds went through this assay and about 31,000 (8.9%) were called active. Inconclusive means that the source gave no clear call. Such entries were picked first, then a sample of the others. Calls follow the shape of the dose curve; as a rule, active = well fitted inhibition curve with a large enough effect; inconclusive = small, poorly fitted or top-dose-only effect; inactive = no such curve, though single readings can be large or run the other way. A potency beside an inconclusive call is a rough fit, not a confirmed value.

Molecular target: Histone-lysine N-methyltransferase EHMT2 (Homo sapiens) (UniProt Q96KQ7)
UniProt Q96KQ7, sequence (Q96KQ7 whole entry, looked up): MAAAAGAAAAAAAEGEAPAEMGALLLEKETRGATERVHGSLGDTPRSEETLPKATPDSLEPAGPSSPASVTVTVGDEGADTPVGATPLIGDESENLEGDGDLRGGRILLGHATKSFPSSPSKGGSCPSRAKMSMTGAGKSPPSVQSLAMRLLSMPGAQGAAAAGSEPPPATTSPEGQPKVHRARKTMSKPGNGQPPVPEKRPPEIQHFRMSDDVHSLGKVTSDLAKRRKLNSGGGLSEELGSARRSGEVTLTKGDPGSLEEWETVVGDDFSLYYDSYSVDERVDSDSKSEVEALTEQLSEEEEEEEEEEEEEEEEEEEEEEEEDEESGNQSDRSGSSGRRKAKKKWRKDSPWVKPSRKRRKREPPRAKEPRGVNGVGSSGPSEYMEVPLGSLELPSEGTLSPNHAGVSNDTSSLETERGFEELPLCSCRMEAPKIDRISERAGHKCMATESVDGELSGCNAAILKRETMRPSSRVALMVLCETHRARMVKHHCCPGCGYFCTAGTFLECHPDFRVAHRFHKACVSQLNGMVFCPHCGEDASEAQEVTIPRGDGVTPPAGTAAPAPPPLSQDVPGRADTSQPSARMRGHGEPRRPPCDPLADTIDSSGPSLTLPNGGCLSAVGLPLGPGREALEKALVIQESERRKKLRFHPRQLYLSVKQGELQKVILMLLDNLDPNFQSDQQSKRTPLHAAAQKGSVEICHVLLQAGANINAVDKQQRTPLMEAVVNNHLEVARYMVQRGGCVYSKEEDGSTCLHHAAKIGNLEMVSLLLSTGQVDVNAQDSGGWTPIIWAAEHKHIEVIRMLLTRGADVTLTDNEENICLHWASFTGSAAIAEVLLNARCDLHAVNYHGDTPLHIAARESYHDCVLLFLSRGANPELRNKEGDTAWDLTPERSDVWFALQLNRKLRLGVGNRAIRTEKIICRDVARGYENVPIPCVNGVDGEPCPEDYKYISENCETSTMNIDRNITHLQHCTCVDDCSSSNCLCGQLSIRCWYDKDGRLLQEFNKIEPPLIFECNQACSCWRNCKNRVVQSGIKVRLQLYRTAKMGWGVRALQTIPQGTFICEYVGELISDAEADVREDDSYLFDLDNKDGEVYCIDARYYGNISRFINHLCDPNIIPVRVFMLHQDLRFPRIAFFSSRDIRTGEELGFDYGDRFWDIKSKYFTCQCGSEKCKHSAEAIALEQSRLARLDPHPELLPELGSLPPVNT
Assay: qHTS Assay for Inhibitors of Histone Lysine Methyltransferase G9a; also: nearly all actives have a fitted effect of over 75% in size
Conditions: G9a H3K9 monomethylation, AlphaScreen, 2 h; activity, negative = inhibition: at 59 µM (top of the series) unless noted
Summary of the method: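 G9a (20 nM) was preincubated 15 min with compound, then reacted 2 h at room temperature with 500 nM biotin-H3K9 peptide and 20 µM SAM. Monomethyl-H3K9 detected by AlphaScreen using anti-H3K9me1 antibody.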
% is scaled to controls: 0 for no effect and ±100 for the full control effect; potency is read from the fitted curve at half-maximal effect; tags tell the direction and shape of the fitted curve.

Row | SMILES | Potency | activity, negative = inhibition
1 | Cc1nc2ccn(Cc3ccccc3)c(=O)c2cc1C(=O)N1CCN(c2ccccc2F)CC1 | inactive | 
2 | CCCOc1ccc(NC(=O)CC2C(=O)N(c3cccc(OC)c3)C(=O)N2Cc2cccs2)cc1 (centres undefined) | inconclusive: 3.55 µM [inhibitor, partial curve, poor fit] | 
3 | NC(=O)C1(N2CCCCC2)CCN(CC(=O)Nc2ccccc2-c2ccccc2)CC1 |  | inactive: -21.2% [at 12.7 µM]
4 | O=C(CSCc1cnn(-c2ccccc2)c1-n1cccc1)NCc1ccc(Cl)cc1 | inactive | 
5 | Cc1ccc(-n2c(SCc3ccc(C#N)cc3)nnc2-c2ccccn2)cc1 | inconclusive: 89.1 µM [inhibitor, single point] | 
6 | COc1ccc(NC(=O)C2C3C=CC(C3)C2C(=O)NCc2ccccn2)c(OC)c1 (centres undefined) | inconclusive: 28.2 µM [inhibitor, single point] | 
7 | Cn1c(-c2ccc3c(c2)OCO3)cnc1NCc1cccc(Cl)c1 | active: 28.2 µM | 
8 | CCN(CC)c1nc2n(c(=S)n1)CCS2 | inactive | 
9 | C=CCNC(=O)COC(=O)c1c2c(nc3ccccc13)CCC2 | active: 39.8 µM | 
10 | CS(=O)(=O)N(CC(=O)NCc1ccccn1)c1ccc2c(c1)OCCO2 | inconclusive: 44.7 µM [inhibitor, partial curve] | 
11 | CCOC(=O)N1CCN(C(=O)c2cc(COc3ccc(OC)cc3Cl)on2)CC1 | inconclusive: 15.8 µM [inhibitor, partial curve, poor fit] | 
12 | COCc1nnc(NC(=O)CCS(=O)(=O)c2ccccc2)s1 | active: 44.7 µM | 
13 | O=C(Nc1cccnc1)c1ccc2nc(-c3ccccc3)c(-c3ccccc3)nc2c1 | inconclusive: 50.1 µM [inhibitor, partial curve] | 
14 | COc1cccc(CN2CC(C(=O)NCc3cnn(C)c3)CCC2=O)c1 (centres undefined) | inconclusive: 12.6 µM [inhibitor, partial curve, poor fit] | 
15 | Cc1cc2ncn(S(=O)(=O)N3CCOCC3)c2cc1C | inconclusive: 79.4 µM [inhibitor, single point] | 
16 | COc1cccc(CN2CCNC(=O)C2CC(=O)N(C)C2CCCCC2)c1 (centres undefined) | active: 50.1 µM | 
17 | Cc1ccc(C(=O)n2ncn(C)c2=S)cc1 | active: 5.62 µM | 
18 | O=[N+]([O-])c1ccc(S(=O)(=O)N2CCN(Cc3c[nH]c4ccccc34)CC2)cc1 | inconclusive: 1.58 µM [inhibitor, single point] | 
19 | CC(C)CC(NS(=O)(=O)c1ccc2c(c1)oc(=O)n2C)C(=O)NCc1ccccc1Cl (centres undefined) | inactive | 
20 | CC(=O)Nc1ccc(NC(=O)c2ccc(-c3ccccc3Cl)o2)cc1 | inactive | 
21 | Cc1ccc(NC(=O)c2cccc(N3C(=O)C4C5C=CC(C5)C4C3=O)c2)cc1C (centres undefined) |  | inactive: -10.8% [at 0.501 µM]
22 | Cc1oc(-c2ccc(Cl)cc2)nc1CN1CCC(C(=O)N2CCc3ccccc3C2)CC1 | inconclusive: 39.8 µM [inhibitor, full curve] | 
23 | Cc1ccc(NC(=O)COC(=O)C(NS(=O)(=O)c2ccc(Cl)cc2)C(C)O)cc1C (centres undefined) | inconclusive: 28.2 µM [inhibitor, single point] | 

Row | SMILES | Potency | activity, negative = inhibition
24 | CSc1nc(-c2ccco2)nn1C(=O)c1ccccc1Cl | inconclusive: 44.7 µM [inhibitor, single point] | 
25 | CCc1nn2c(=O)cc(COC(=O)CNC(=O)COc3ccc(C)cc3)nc2s1 | inactive | 
26 | O=C(Nc1nc(-c2ccncc2)cs1)C1c2ccccc2Oc2ccccc21 | inconclusive: 31.6 µM [inhibitor, single point] | 
27 | O=C(NCC1CC1)[C@@H]1C[C@H]1[C@@H](NP(=O)(c1ccccc1)c1ccccc1)c1ccccc1 | inconclusive: 50.1 µM [inhibitor, partial curve] | 
28 | CCN(CC)P(=O)(Nc1ccc(C)cc1Br)c1ccc(N(C)C)cc1NC(=O)c1ccco1 (centres undefined) | active: 39.8 µM | 
29 | O=C(CSc1nc2c(sc3ccccc32)c(=O)n1CCCN1CCCC1)NCc1ccccc1 | inconclusive: 35.5 µM [inhibitor, partial curve, poor fit] | 
30 | CCN(CCO)Cc1csc2ccc(Br)cc12 | inconclusive: 39.8 µM [inhibitor, single point] | 
31 | CC1=CC(C)(C)Nc2ccc(Cc3ccc4c(c3)C(C)=CC(C)(C)N4)cc21 | active: 10 µM | 
32 | COc1cc(-c2nc3ccc4ccccc4c3c3c2CCC3)ccc1O | inconclusive: 22.4 µM [inhibitor, partial curve, poor fit] | 
33 | Cc1cn(C)c(CC(=O)N2CCN(c3cccc(Cl)c3)CC2)c1C(=O)O | inactive | 
34 | CCN(CC)Cc1cc2ccccc2c2c1COC2 | inactive | 
35 | Cc1ccc2c(c1)NC(=O)C(CC(=O)NCc1ccc(F)cc1)O2 (centres undefined) | active: 50.1 µM | 
36 | CCN(c1ccccc1)S(=O)(=O)c1cc(NC(=O)CSc2n[nH]c(=O)[nH]c2=O)ccc1Cl | inconclusive: 89.1 µM [inhibitor, partial curve, poor fit] | 
37 | CCSc1nc(NCCN(C)C)c2c3c(sc2n1)COC(C)(CC)C3 (centres undefined) | inconclusive: 89.1 µM [inhibitor, single point] | 
38 | CCCn1c(C(C)Nc2nc(-c3cccc(Br)c3)cs2)nc2ccccc21 (centres undefined) | inconclusive: 50.1 µM [inhibitor, single point] | 
39 | CCN1CCN(Cc2ccc(NC(=O)c3cc(NC(=O)c4cc(-c5ccc(OC)cc5)n[nH]4)cc(OC)c3)cc2C(F)(F)F)CC1 |  | inconclusive: -78.8% [inhibitor]
40 | CCOC(=O)C1(C)C(C(=O)OC)=C(c2ccc(OC)cc2)c2ccccc2N1C(=O)OC (centres undefined) | inconclusive: 22.4 µM [inhibitor, partial curve, poor fit] | 
41 | Cc1cc(NCCN2CCOCC2)n2nc(C)c(-c3ccc(Cl)cc3)c2n1 | inconclusive: 0.708 µM [inhibitor, full curve, poor fit] | 
42 | CN(Cc1nccs1)C(=O)CC1C(=O)NCCN1Cc1ccc(-c2ccccc2)cc1 (centres undefined) | inconclusive: 79.4 µM [inhibitor, single point] | 
43 | CCN1CCN(C(=O)c2cc3c(-c4ccc(Cl)cc4)nn(C)c3s2)CC1 | inconclusive: 89.1 µM [inhibitor, single point] | 
44 | N#Cc1cccc(-c2ccc3ncnc(N4CCNCC4)c3c2)c1 |  | inactive: 11.3% [at 0.501 µM]
45 | Cc1ccc(C(=O)NCC(=O)OCC(=O)N(CC(C)C)c2c(N)n(Cc3ccccc3)c(=O)[nH]c2=O)cc1C | inconclusive: 70.8 µM [inhibitor, partial curve, poor fit] | 
46 | O=[N+]([O-])c1cccc2ncccc12 | inconclusive: 17.8 µM [inhibitor, partial curve, poor fit] | 

Row | SMILES | Potency | activity, negative = inhibition
47 | Cc1cccc(NC(=O)c2ccc3nc(C(C)C)oc3c2)c1C | inactive | 
48 | COc1cccc(/C=C2\SC(=S)N(CCC(=O)N3CCCCC3CCO)C2=O)c1 (centres undefined) | active: 56.2 µM | 
49 | COc1ccc(C(=O)C2CCCN(Cc3cnc(N4CCOCC4)s3)C2)cc1F (centres undefined) | inconclusive: 22.4 µM [inhibitor, single point] | 
50 | C=CCOc1ccc(C2/C(=C(\O)c3ccc(F)cc3)C(=O)C(=O)N2CCCN(C)C)cc1 (centres undefined) | inconclusive: 89.1 µM [inhibitor, single point] | 
51 | Clc1ccccc1CN1CCC(Cc2ccccc2)CC1 | active: 10 µM | 
52 | COc1cccc(CNC(=O)c2ccccc2SCC(=O)N2CCCC2)c1 |  | inactive: 2.67% [at 2.33 µM]
53 | Cn1nc([N+](=O)[O-])c2c(-c3nc4ccccc4s3)c(N)n(C3CCCCC3)c2c1=O | inconclusive: 3.16 µM [inhibitor, partial curve, poor fit] | 
54 | O=C(Nc1ccc2c(c1)C(=O)NC2=O)c1ccc2ncsc2c1 | inactive | 
55 | O=C1c2ccccc2C(Nc2ccc(S(=O)(=O)N3CCOCC3)cc2)N1c1cccnc1 (centres undefined) | inactive | 
56 | Fc1ccc(CNC(=S)NCc2cccc(Cl)c2)cc1 | inconclusive: 56.2 µM [inhibitor, single point] | 
57 | COC(=O)C1=NN(c2ccc(C)cc2)C2C(=O)N(c3ccccc3OC)C(=O)C12 (centres undefined) | inconclusive: 79.4 µM [inhibitor, single point] | 
58 | O=C1c2ccccc2C(O)(c2ccccc2)N1CCc1ccccc1 (centres undefined) | inactive | 
59 | COc1ccc(-c2nsc(SCC(=O)NCc3ccc4c(c3)OCO4)n2)cc1 | active: 25.1 µM | 
60 | Cc1ccc(Nc2nc(CSc3nnc(-c4ccncc4)n3C)cs2)cc1 | active: 39.8 µM | 
61 | Cc1ccc(S(=O)(=O)c2nc(S(=O)(=O)c3ccc(C)cc3)c(N3CCN(CCO)CC3)s2)cc1 | inconclusive: 79.4 µM [inhibitor, single point] | 
62 | COc1cc(Cl)c(NC(=O)CCS(=O)(=O)c2ccc3c(c2)NC(=O)CO3)c(OC)c1 | inactive | 
63 | S=c1nc(C2CCCCC2)[nH][nH]1 |  | inconclusive: -118% [inhibitor] [at 12.7 µM]
64 | O=C(CS(=O)(=O)c1ccc(C(F)(F)F)cn1)NNC(=O)c1ccccc1 | inconclusive: 89.1 µM [inhibitor, single point] | 
65 | COc1ccccc1CCNC(=O)C(=O)NCC(c1cccs1)S(=O)(=O)c1cccs1 (centres undefined) | inactive | 
66 | Cc1ccc(C)c(NC(=O)CSc2nnc(CSc3nc(C)cc(C)n3)n2Cc2ccco2)c1 | inconclusive: 79.4 µM [inhibitor, single point] | 
67 | COc1cc(/C=N/NC(=O)c2nc3ccccn3c2C)cc(OC)c1O | active: 15.8 µM | 
68 | CCOc1ccc(S(=O)(=O)Nc2cccc(-c3ccc(OCC)nn3)c2)cc1 | inconclusive: 15.8 µM [inhibitor, partial curve, poor fit] | 
69 | COc1ccc(CN2CCN(c3cccc(C)c3C)CC2)cc1OC | active: 11.2 µM | 
